Some of the results follow. Repeats are few or missing, and single values can be far off.
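Note: cells treated in 1,536-well plates, then fixed and DAPI-stained, with nuclei counted from automated high-throughput microscope images.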

In the test the test system is SkMel2. Put plainly: cell count relative to DMSO control; melanoma cells; higher = more viable cells. Conditions: library dose: standard library concentration; 72 h.
For `COc1cc([C@@H]2c3cc4c(cc3[C@@H](O[C@@H]3O[C@@H]5CO[C@@H](C)O[C@H]5[C@H](O)[C@H]3O)[C@H]3COC(=O)[C@H]23)OCO4)cc(OC)c1O` [etoposide] + NC(=O)Nc1cc(-c2cccc(F)c2)sc1C(=O)N[C@H]1CCCNC1 [AZD7762] (first compound 0.1 µM, partner dose 0.1 µM), the cell count stood at 61.5%.

`Cn1cnc2c(F)c(Nc3ccc(Br)cc3Cl)c(C(=O)NOCCO)cc21` [selumetinib] + CN(C)S(=O)(=O)c1ccc2c(c1)/C(=C/c1cc3c([nH]1)CCCC3)C(=O)N2 [SU6656] (first compound 0.075 µM, partner dose 2 µM): the cell count was determined as 41.4%.

Consider `C[C@]1(O)C[C@@H](c2nc(-c3ccc4ccc(-c5ccccc5)nc4c3)c3c(N)nccn32)C1` + CO[C@@H]1[C@H](N(C)C(=O)c2ccccc2)C[C@H]2O[C@]1(C)n1c3ccccc3c3c4c(c5c6ccccc6n2c5c31)C(=O)NC4 [Midostaurin] (first compound 2 µM, partner dose 0.4 µM), for which the cell count is 45.8%.

`Cn1cnc2c(F)c(Nc3ccc(Br)cc3Cl)c(C(=O)NOCCO)cc21` [selumetinib] + C[C@@H]1CCN(C(=O)CC#N)C[C@@H]1N(C)c1ncnc2[nH]ccc12 [CP690550] (first compound 0.075 µM, partner dose 5 µM) had a cell count of 67.1%.

For `Cn1cnc2c(F)c(Nc3ccc(Br)cc3Cl)c(C(=O)NOCCO)cc21` [selumetinib] + CO[C@@H]1[C@H](N(C)C(=O)c2ccccc2)C[C@H]2O[C@]1(C)n1c3ccccc3c3c4c(c5c6ccccc6n2c5c31)C(=O)NC4 [Midostaurin] (first compound 0.075 µM, partner dose 0.4 µM), the cell count was 46.5%.

As to `COc1cc([C@@H]2c3cc4c(cc3[C@@H](O[C@@H]3O[C@@H]5CO[C@@H](C)O[C@H]5[C@H](O)[C@H]3O)[C@H]3COC(=O)[C@H]23)OCO4)cc(OC)c1O` [etoposide] + Cc1cc(N2CCOCC2)cc2[nH]c(-c3c(NC[C@@H](O)c4cccc(Cl)c4)cc[nH]c3=O)nc12 [BMS536924] (first compound 0.1 µM, partner dose 1 µM), the cell count came to 74.5%.

`Cn1cnc2c(F)c(Nc3ccc(Br)cc3Cl)c(C(=O)NOCCO)cc21` [selumetinib] + C=CCn1c(=O)c2cnc(Nc3ccc(N4CCN(C)CC4)cc3)nc2n1-c1cccc(C(C)(C)O)n1 [MK1775] (first compound 0.075 µM, partner dose 0.1 µM) gave a cell count of 32.1%.

`COc1cc([C@@H]2c3cc4c(cc3[C@@H](O[C@@H]3O[C@@H]5CO[C@@H](C)O[C@H]5[C@H](O)[C@H]3O)[C@H]3COC(=O)[C@H]23)OCO4)cc(OC)c1O` [etoposide] + CO[C@@H]1[C@H](N(C)C(=O)c2ccccc2)C[C@H]2O[C@]1(C)n1c3ccccc3c3c4c(c5c6ccccc6n2c5c31)C(=O)NC4 [Midostaurin] (first compound 0.1 µM, partner dose 0.4 µM) returned a cell count of 54%.

As for `CCN(CC)CCNC(=O)c1c(C)[nH]c(/C=C2\C(=O)Nc3ccc(F)cc32)c1C` [sunitinib] + C[C@@H]1CCN(C(=O)CC#N)C[C@@H]1N(C)c1ncnc2[nH]ccc12 [CP690550] (first compound 2 µM, partner dose 5 µM), the cell count was found to be 63.5%.

In turn, `COc1cc([C@@H]2c3cc4c(cc3[C@@H](O[C@@H]3O[C@@H]5CO[C@@H](C)O[C@H]5[C@H](O)[C@H]3O)[C@H]3COC(=O)[C@H]23)OCO4)cc(OC)c1O` [etoposide] + Nc1ccn([C@@H]2O[C@H](CO)[C@@H](O)C2(F)F)c(=O)n1 [gemcitabine] (first compound 0.1 µM, partner dose 0.002 µM) had a cell count of 69.8%.

The compound `COc1cc([C@@H]2c3cc4c(cc3[C@@H](O[C@@H]3O[C@@H]5CO[C@@H](C)O[C@H]5[C@H](O)[C@H]3O)[C@H]3COC(=O)[C@H]23)OCO4)cc(OC)c1O` [etoposide] + C=CCn1c(=O)c2cnc(Nc3ccc(N4CCN(C)CC4)cc3)nc2n1-c1cccc(C(C)(C)O)n1 [MK1775] (first compound 0.1 µM, partner dose 0.1 µM) came in with a cell count of 61.4%.

`C[C@]1(O)C[C@@H](c2nc(-c3ccc4ccc(-c5ccccc5)nc4c3)c3c(N)nccn32)C1` + Cc1cc(N2CCOCC2)cc2[nH]c(-c3c(NC[C@@H](O)c4cccc(Cl)c4)cc[nH]c3=O)nc12 [BMS536924] (first compound 2 µM, partner dose 1 µM) returned a cell count of 74%.

The values above are taken from the supplement of paper PMC4604168 (melanoma cell lines).
